Among the data in patent publication US20230250147A1, “GLP-1R AGONISTIC PEPTIDES WITH REDUCED ACTIVITY” (SANOFI, priority 2020, published 2023) are EC50 values, retold here.

Sequences and labels used below:
B1: 67 (protein)
chain: GHGEGTFTSDLSIQLEEEAVRLFIEWLLAGGPSSGKPPPKGGGGGGGSGGGGSGGGGSA[… human IgG4 Fc with changes …]GGGSGSAHPIPDSSPLLQFGGQVRQRYLYTDDACQTEAHLEIREDGTVGGAADQSPESLLQLKALKPGVIQILGVKTSRFLCQRPDGALYGSLHFDPEACSFRELLLEDGYNVYQSEAHGLPLHLPGCKSPHRDPAPRGPARFLPLPGLPPAPPEPPGILAPQPPDVGSSDPLSMVGSQGRSPSYAS
modifications: Fusion Protein
B2: 56 (protein)
chain: AHGEGTFTSDKSIQLEKEAVRLFIEWLLAGGHPSGKPPPKGGGGGGGSGGGGSGGGGSA[… human IgG4 Fc with changes …]GGGSGSAHPIPDSSPLLQFGGQVRQRYLYTDDACQTEAHLEIREDGTVGGAADQSPESLLQLKALKPGVIQILGVKTSRFLCQRPDGALYGSLHFDPEACSFRELLLEDGYNVYQSEAHGLPLHLPGCKSPHRDPAPRGPARFLPLPGLPPAPPEPPGILAPQPPDVGSSDPLSMVGSQGRSPSYAS
modifications: Fusion Protein
B3: 55 (protein)
chain: GHGEGTFTSDKSIQLEEEAVRLFIEWLLAGGHPSGKPPPKGGGGGGGSGGGGSGGGGSA[… human IgG4 Fc with changes …]GGGSGSAHPIPDSSPLLQFGGQVRQRYLYTDDACQTEAHLEIREDGTVGGAADQSPESLLQLKALKPGVIQILGVKTSRFLCQRPDGALYGSLHFDPEACSFRELLLEDGYNVYQSEAHGLPLHLPGCKSPHRDPAPRGPARFLPLPGLPPAPPEPPGILAPQPPDVGSSDPLSMVGSQGRSPSYAS
modifications: Fusion Protein
B4: 68 (protein)
chain: GHGEGTFTSDLSIQLEEEAVRLFIEWLLAGGPSKGKPPPKGGGGGGGSGGGGSGGGGSA[… human IgG4 Fc with changes …]GGGSGSAHPIPDSSPLLQFGGQVRQRYLYTDDACQTEAHLEIREDGTVGGAADQSPESLLQLKALKPGVIQILGVKTSRFLCQRPDGALYGSLHFDPEACSFRELLLEDGYNVYQSEAHGLPLHLPGCKSPHRDPAPRGPARFLPLPGLPPAPPEPPGILAPQPPDVGSSDPLSMVGSQGRSPSYAS
modifications: Fusion Protein
B5: 66 (protein)
chain: GHGEGTFTSDKSKQLEEEAVRLFIEWLKAGGPKKQRLSGGGGGGGSGGGGSGGGGSA[… human IgG4 Fc with changes …]GGGSGSAHPIPDSSPLLQFGGQVRQRYLYTDDACQTEAHLEIREDGTVGGAADQSPESLLQLKALKPGVIQILGVKTSRFLCQRPDGALYGSLHFDPEACSFRELLLEDGYNVYQSEAHGLPLHLPGCKSPHRDPAPRGPARFLPLPGLPPAPPEPPGILAPQPPDVGSSDPLSMVGSQGRSPSYAS
modifications: Fusion Protein
B6: 50 (protein)
chain: HGEGTFTSDLSKQLEEEAVQLFIEWLLATGPSSGKPPPKGGGGGGGSGGGGSGGGGSA[… human IgG4 Fc with changes …]GGGSGSAHPIPDSSPLLQFGGQVRQRYLYTDDACQTEAHLEIREDGTVGGAADQSPESLLQLKALKPGVIQILGVKTSRFLCQRPDGALYGSLHFDPEACSFRELLLEDGYNVYQSEAHGLPLHLPGCKSPHRDPAPRGPARFLPLPGLPPAPPEPPGILAPQPPDVGSSDPLSMVYPSQGRSPSYAS
modifications: Fusion Protein
B7: 51 (protein)
chain: HGEGTFTSDLSKQLEEEAVQLFIEWLLATGPSSGKPPPEGGGGGGGSGGGGSGGGGSA[… human IgG4 Fc with changes …]GGGSGSAHPIPDSSPLLQFGGQVRQRYLYTDDACQTEAHLEIREDGTVGGAADQSPESLLQLKALKPGVIQILGVKTSRFLCQRPDGALYGSLHFDPEACSFRELLLEDGYNVYQSEAHGLPLHLPGCKSPHRDPAPRGPARFLPLPGLPPAPPEPPGILAPQPPDVGSSDPLSMVYPSQGRSPSYAS
modifications: Fusion Protein
B8: 52 (protein)
chain: HGEGTFTSDLSKQLEEEAVQLFIEWLLATGPSSGEPPPKGGGGGGGSGGGGSGGGGSA[… human IgG4 Fc with changes …]GGGSGSAHPIPDSSPLLQFGGQVRQRYLYTDDACQTEAHLEIREDGTVGGAADQSPESLLQLKALKPGVIQILGVKTSRFLCQRPDGALYGSLHFDPEACSFRELLLEDGYNVYQSEAHGLPLHLPGCKSPHRDPAPRGPARFLPLPGLPPAPPEPPGILAPQPPDVGSSDPLSMVYPSQGRSPSYAS
modifications: Fusion Protein
B9: 47 (protein)
chain: HGEGTFTSDLSKQLEEEAVQLFIEWLLATGPSSGKPPPKSGGGGGGGSGGGGSGGGGSA[… human IgG4 Fc with changes …]GGGSGSAHPIPDSSPLLQFGGQVRQRYLYTDDACQTEAHLEIREDGTVGGAADQSPESLLQLKALKPGVIQILGVKTSRFLCQRPDGALYGSLHFDPEACSFRELLLEDGYNVYQSEAHGLPLHLPGCKSPHRDPAPRGPARFLPLPGLPPAPPEPPGILAPQPPDVGSSDPLSMVYPSQGRSPSYAS
modifications: Fusion Protein
B10: 48 (protein)
chain: HGEGTFTSDLSKQLEEEAVQLFIEWLLATGPSSGKPPPESGGGGGGGSGGGGSGGGGSA[… human IgG4 Fc with changes …]GGGSGSAHPIPDSSPLLQFGGQVRQRYLYTDDACQTEAHLEIREDGTVGGAADQSPESLLQLKALKPGVIQILGVKTSRFLCQRPDGALYGSLHFDPEACSFRELLLEDGYNVYQSEAHGLPLHLPGCKSPHRDPAPRGPARFLPLPGLPPAPPEPPGILAPQPPDVGSSDPLSMVYPSQGRSPSYAS
modifications: Fusion Protein
B11: 49 (protein)
chain: HGEGTFTSDLSKQLEEEAVQLFIEWLLATGPSSGEPPPKSGGGGGGGSGGGGSGGGGSA[… human IgG4 Fc with changes …]GGGSGSAHPIPDSSPLLQFGGQVRQRYLYTDDACQTEAHLEIREDGTVGGAADQSPESLLQLKALKPGVIQILGVKTSRFLCQRPDGALYGSLHFDPEACSFRELLLEDGYNVYQSEAHGLPLHLPGCKSPHRDPAPRGPARFLPLPGLPPAPPEPPGILAPQPPDVGSSDPLSMVYPSQGRSPSYAS
modifications: Fusion Protein

T2 sequence (F8V479 24-463): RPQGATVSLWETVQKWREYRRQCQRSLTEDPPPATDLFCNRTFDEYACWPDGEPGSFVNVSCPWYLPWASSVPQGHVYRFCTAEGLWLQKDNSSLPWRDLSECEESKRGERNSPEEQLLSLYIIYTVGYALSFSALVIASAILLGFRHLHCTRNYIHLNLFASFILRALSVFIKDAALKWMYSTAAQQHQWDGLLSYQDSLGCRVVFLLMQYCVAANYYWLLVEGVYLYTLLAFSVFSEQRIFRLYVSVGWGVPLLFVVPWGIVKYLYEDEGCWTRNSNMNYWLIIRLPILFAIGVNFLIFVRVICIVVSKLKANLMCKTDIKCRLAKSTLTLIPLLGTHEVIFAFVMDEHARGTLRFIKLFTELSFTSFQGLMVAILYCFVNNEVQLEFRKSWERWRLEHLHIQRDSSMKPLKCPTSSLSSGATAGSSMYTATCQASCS

One test deals with T1, Human GLP-1R (Homo sapiens, UniProt P43220).
T1 construct: expressed in transfected cells; host or cells: HEK-293
T1 sequence (P43220 24-463): as the sequence (F8V479 24-463) above, with N112S, S120F, G202S, V205L, F237L, R241W, V249I counted along it
The test can be described thus: HTRF cAMP assay in HEK-293 cells, human GLP-1R. The class given is cell-based. (Time-resolved FRET reads energy transfer from a long-lived donor to a nearby acceptor.)
For orientation: EC50 means the concentration that produces a half-maximal response. B1 showed an EC50 of 0.0365 nM.
The same measure, in the same setting: next, B2: 0.015 nM.
The same measure, in the same setting: next, B3: 0.261 nM.
Molecule B4 showed an EC50 of 0.0167 nM.
Same read-out and setting: next, B5: 0.0338 nM; B6: 0.0205 nM; B7: 0.0268 nM.
Still for that read-out and setting: next, B8: 0.0256 nM; B9: 0.017 nM.
On the same count and under the same terms, next, B10: 0.0357 nM; B11: 0.0234 nM.

A further test addresses T2, Monkey GLP-1R (Macaca fascicularis, UniProt F8V479).
T2 construct: expressed in transfected cells; host or cells: HEK-293
The test can be described thus: HTRF cAMP assay in HEK-293 cells, monkey GLP-1R. The class given is cell-based. As for the experimental part:
Recombinant HEK-293 cells were grown in T175 culture flasks placed at 37° C. to near confluence in medium (DMEM with 10% FBS) and collected in 2 mL vials in cell culture medium containing 10% DMSO in concentrations of 1-5×10^7 cells/mL. Each vial contained 1.8 mL cell suspension. The vials were slowly frozen to −80° C. in an isopropanol chamber, and then transferred to liquid nitrogen for long term storage.
Prior to their use, frozen cells were thawed quickly at 37° C., washed with 20 mL cell buffer (1×HBSS; 20 mM HEPES, 0.1% BSA) and centrifuged for 5 minutes at 900 rpm. Cells were resuspended in assay buffer (cell buffer plus 2 mM IBMX) and adjusted to a cell density of 1×10^6 cells/mL. For measurement, 5 μL cell suspension (final 5×10^3 cells/well) and 5 μL of test compound were added to a well of a 384-well plate, followed by incubation for 30 minutes at room temperature. […] The cAMP content of cells was determined using a kit from Cisbio Corp. (cat. no. 62AM4PEC) based on Homogenous Time Resolved Fluorescence (HTRF).
Regarding B1, the EC50 amounted to 0.0216 nM.
Still for that read-out and setting: next, B2: 0.0115 nM; B3: 0.157 nM; B4: 0.0108 nM.
In the case of B5, the EC50 was determined as 0.0314 nM.
For B6, the EC50 amounted to 0.0382 nM.
On to B7, for which it took 0.0511 nM to reach a half-maximal effect (EC50).
The same measure, in the same setting: next, B8: 0.046 nM; B9: 0.0356 nM; B10: 0.0606 nM.
On the same count and under the same terms, next, B11: 0.0422 nM.

For another test, the target named is T3, Mouse GLP-1R (Mus musculus, UniProt O35659).
T3 construct: expressed in transfected cells; host or cells: HEK-293
T3 sequence (O35659 22-463): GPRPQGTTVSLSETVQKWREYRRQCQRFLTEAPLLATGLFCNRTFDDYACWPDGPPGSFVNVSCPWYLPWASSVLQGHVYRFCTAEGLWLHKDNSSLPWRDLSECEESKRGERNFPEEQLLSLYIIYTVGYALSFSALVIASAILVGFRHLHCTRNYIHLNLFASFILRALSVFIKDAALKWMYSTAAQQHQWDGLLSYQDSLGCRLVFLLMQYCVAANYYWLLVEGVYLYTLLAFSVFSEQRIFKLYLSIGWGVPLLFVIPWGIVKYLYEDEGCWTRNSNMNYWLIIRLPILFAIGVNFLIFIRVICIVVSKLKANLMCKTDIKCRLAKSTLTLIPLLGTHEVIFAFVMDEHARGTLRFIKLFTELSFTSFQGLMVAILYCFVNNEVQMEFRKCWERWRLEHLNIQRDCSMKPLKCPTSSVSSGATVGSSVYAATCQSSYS
The test can be described thus: HTRF cAMP assay in HEK-293 cells, mouse GLP-1R. The class given is cell-based.
B1: the EC50 turned out to be 0.0102 nM.
On the same count and under the same terms, next, B2: 0.0667 nM; B3: 0.596 nM; B4: 0.00942 nM.
On the same count and under the same terms, next, B5: 0.011 nM; B6: 0.00787 nM.
The same measure, in the same setting: next, B7: 0.00758 nM; B8: 0.00704 nM; B9: 0.00664 nM.
The molecule B10 yielded an EC50 of 0.0101 nM.
On the same count and under the same terms, next, B11: 0.00665 nM.
